Measurements taken from the supplement of paper PMC8728848.
The other results are listed elsewhere or left out.

Legend:
Assay in all cases: glycan array binding signal (z-score within array); higher = stronger binding
Settings in all cases: glycan notation: IUPAC condensed, linker removed
[1] = target: Neu5Ac(a2-6)Gal(b1-4)GlcNAc(b1-2)Man(a1-3)[Gal(b1-4)GlcNAc(b1-2)Man(a1-6)]Man(b1-4)GlcNAc(b1-4)GlcNAc
How it was run: (§1)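 Glycan array data were curated from 3228 arrays in the Consortium for Functional Glycomics database and kept only where the protein sequence was available. Glycan names were converted to IUPAC-condensed notation, and columns mapping to the same glycan were averaged. The binding signal is a within-array Z-score, averaged across arrays of the same protein sequence at different concentrations or buffers and across linkers. Negative Z-scores can be read as non-binding.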

[2] = target: Neu5Ac(a2-6)Gal(b1-4)GlcNAc(b1-2)Man(a1-3)[GlcNAc(b1-2)Man(a1-6)]Man(b1-4)GlcNAc(b1-4)GlcNAc
How it was run: as §1

[3] = target: Neu5Ac(a2-6)Gal(b1-4)GlcNAc(b1-2)Man(a1-3)[GlcNAc(b1-2)Man(b1-4)GlcNAc(b1-2)Man(a1-6)]Man(b1-4)GlcNAc(b1-4)GlcNAc
How it was run: as §1

[4] = target: Neu5Ac(a2-6)Gal(b1-4)GlcNAc(b1-2)Man(a1-3)[Neu5Ac(a2-6)Gal(b1-4)GlcNAc(b1-2)Man(a1-6)]Man(b1-4)GlcNAc(b1-4)GlcNAc
How it was run: as §1

[5] = target: Neu5Ac(a2-6)Gal(b1-4)GlcNAc(b1-2)Man(a1-6)[Gal(b1-4)GlcNAc(b1-2)Man(a1-3)]Man(b1-4)GlcNAc(b1-4)GlcNAc
How it was run: as §1

[6] = target: Neu5Ac(a2-6)Gal(b1-4)GlcNAc(b1-2)Man(a1-6)[GlcNAc(b1-2)Man(a1-3)]Man(b1-4)GlcNAc(b1-4)GlcNAc
How it was run: as §1

[7] = target: Neu5Ac(a2-6)Gal(b1-4)GlcNAc(b1-3)Gal(b1-4)GlcNAc
How it was run: as §1

[8] = target: Neu5Ac(a2-6)Gal(b1-4)GlcNAc(b1-3)Gal(b1-4)[Fuc(a1-3)]GlcNAc(b1-3)Gal(b1-4)[Fuc(a1-3)]GlcNAc
How it was run: as §1

[9] = target: Neu5Ac(a2-6)Gal(b1-4)GlcNAc6S
How it was run: as §1

Neu5Ac(a2-6)GalNAc = target: Neu5Ac(a2-6)GalNAc
How it was run: as §1

[10] = target: Neu5Ac(a2-6)GalNAc(b1-4)GlcNAc
How it was run: as §1

Neu5Ac(a2-8)Neu5Ac = target: Neu5Ac(a2-8)Neu5Ac
How it was run: as §1

[11] = target: Neu5Ac(a2-8)Neu5Ac(a2-3)Gal(b1-4)Glc
How it was run: as §1

[12] = target: Neu5Ac(a2-8)Neu5Ac(a2-3)[GalNAc(b1-4)]Gal(b1-4)Glc
How it was run: as §1

[13] = target: Neu5Ac(a2-8)Neu5Ac(a2-8)Neu5Ac
How it was run: as §1

[14] = target: Neu5Ac(a2-8)Neu5Ac(a2-8)Neu5Ac(a2-3)Gal(b1-4)Glc
How it was run: as §1

[15] = target: Neu5Ac(a2-8)Neu5Ac(a2-8)Neu5Ac(a2-3)[GalNAc(b1-4)]Gal(b1-4)Glc
How it was run: as §1

[16] = target: Neu5Ac(a2-8)Neu5Ac(a2-8)Neu5Ac(a2-8)Neu5Ac(a2-3)[GalNAc(b1-4)]Gal(b1-4)Glc
How it was run: as §1

[17] = target: Neu5Ac(b2-6)Gal(b1-4)GlcNAc
How it was run: as §1

Neu5Ac(b2-6)GalNAc = target: Neu5Ac(b2-6)GalNAc
How it was run: as §1

[18] = target: Neu5Ac9Ac(a2-6)Gal(b1-4)GlcNAc
How it was run: as §1

[19] = target: Neu5Gc(a2-3)Gal(b1-3)GlcNAc
How it was run: as §1

[20] = target: Neu5Gc(a2-3)Gal(b1-3)[Fuc(a1-4)]GlcNAc
How it was run: as §1

Neu5Gc(a2-3)Gal(b1-4)Glc = target: Neu5Gc(a2-3)Gal(b1-4)Glc
How it was run: as §1

[21] = target: Neu5Gc(a2-3)Gal(b1-4)GlcNAc
How it was run: as §1

[22] = target: Neu5Gc(a2-3)Gal(b1-4)[Fuc(a1-3)]GlcNAc
How it was run: as §1

[23] = target: Neu5Gc(a2-6)Gal(b1-4)GlcNAc
How it was run: as §1

Neu5Gc(a2-6)GalNAc = target: Neu5Gc(a2-6)GalNAc
How it was run: as §1

[24] = target: Neu5Gc(b2-6)Gal(b1-4)GlcNAc
How it was run: as §1

B1: Glycodelin A (Homo sapiens), P09466 (protein)
chain: MLCLLLTLGVALVCGVPAMDIPQTKQDLELPKLAGTWHSMAMATNNISLMATLKAPLRVHITSLLPTPEDNLEIVLHRWENNSCVEKKVLGEKTENPKKFKINYTVANEATLLDTDYDNFLFLCLQDTTTPIQSMMCQYLARVLVEDDEIMQGFIRAFRPLPRHLWYLLDLKQMEEPCRF
[1]
  glycan array binding signal (z-score): -0.431
[2]
  glycan array binding signal (z-score): -0.196
[3]
  glycan array binding signal (z-score): 2.02
[4]
  glycan array binding signal (z-score): 2.29
[5]
  glycan array binding signal (z-score): -0.452
[6]
  glycan array binding signal (z-score): 1.85
[7]
  glycan array binding signal (z-score): -0.464
[8]
  glycan array binding signal (z-score): -0.51
[9]
  glycan array binding signal (z-score): -0.335
Neu5Ac(a2-6)GalNAc
  glycan array binding signal (z-score): 4.31
[10]
  glycan array binding signal (z-score): 0.353
Neu5Ac(a2-8)Neu5Ac
  glycan array binding signal (z-score): -0.379
[11]
  glycan array binding signal (z-score): -0.442
[12]
  glycan array binding signal (z-score): -0.512
[13]
  glycan array binding signal (z-score): -0.459
[14]
  glycan array binding signal (z-score): -0.388
[15]
  glycan array binding signal (z-score): 1.47
[16]
  glycan array binding signal (z-score): 4.64
[17]
  glycan array binding signal (z-score): -0.305
Neu5Ac(b2-6)GalNAc
  glycan array binding signal (z-score): 3.68
[18]
  glycan array binding signal (z-score): -0.118
[19]
  glycan array binding signal (z-score): -0.454
[20]
  glycan array binding signal (z-score): -0.513
Neu5Gc(a2-3)Gal(b1-4)Glc
  glycan array binding signal (z-score): -0.359
[21]
  glycan array binding signal (z-score): -0.359
[22]
  glycan array binding signal (z-score): -0.415
[23]
  glycan array binding signal (z-score): -0.316
Neu5Gc(a2-6)GalNAc
  glycan array binding signal (z-score): -0.239
[24]
  glycan array binding signal (z-score): -0.413
